Measured values reported in article PMC6104826.
Results are given in words; binding and its absence hold for the method and conditions named. For some assays here: In cells and extracts the contact can be indirect. Some results given as binding are weak or reduced against the parent protein; the word gives no strength.

The chains behind the UniProt entries cited, without tags or fusion partners. Where a name states a change or a piece, a line headed by the entry shows the natural chain unless it says otherwise. A line that says so, or that is headed by a name, gives the form on record, which may keep a tag or linker. Residues count along the entry.
HA-tagged cMyBP-C CT (residues 817–1274) (Q14896, residues 817-1274): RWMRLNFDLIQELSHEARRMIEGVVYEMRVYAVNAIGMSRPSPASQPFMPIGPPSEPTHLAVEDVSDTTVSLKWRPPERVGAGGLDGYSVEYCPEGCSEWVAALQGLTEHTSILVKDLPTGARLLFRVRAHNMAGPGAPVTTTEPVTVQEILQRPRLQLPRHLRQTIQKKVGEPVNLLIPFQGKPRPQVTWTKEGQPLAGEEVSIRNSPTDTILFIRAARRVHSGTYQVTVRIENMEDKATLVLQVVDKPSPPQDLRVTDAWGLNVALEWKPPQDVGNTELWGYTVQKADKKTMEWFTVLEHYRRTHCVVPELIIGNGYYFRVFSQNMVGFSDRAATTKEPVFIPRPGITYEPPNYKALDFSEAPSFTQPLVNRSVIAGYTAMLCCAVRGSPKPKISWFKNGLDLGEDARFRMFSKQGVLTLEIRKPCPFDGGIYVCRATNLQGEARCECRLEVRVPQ
UniProt Q92736: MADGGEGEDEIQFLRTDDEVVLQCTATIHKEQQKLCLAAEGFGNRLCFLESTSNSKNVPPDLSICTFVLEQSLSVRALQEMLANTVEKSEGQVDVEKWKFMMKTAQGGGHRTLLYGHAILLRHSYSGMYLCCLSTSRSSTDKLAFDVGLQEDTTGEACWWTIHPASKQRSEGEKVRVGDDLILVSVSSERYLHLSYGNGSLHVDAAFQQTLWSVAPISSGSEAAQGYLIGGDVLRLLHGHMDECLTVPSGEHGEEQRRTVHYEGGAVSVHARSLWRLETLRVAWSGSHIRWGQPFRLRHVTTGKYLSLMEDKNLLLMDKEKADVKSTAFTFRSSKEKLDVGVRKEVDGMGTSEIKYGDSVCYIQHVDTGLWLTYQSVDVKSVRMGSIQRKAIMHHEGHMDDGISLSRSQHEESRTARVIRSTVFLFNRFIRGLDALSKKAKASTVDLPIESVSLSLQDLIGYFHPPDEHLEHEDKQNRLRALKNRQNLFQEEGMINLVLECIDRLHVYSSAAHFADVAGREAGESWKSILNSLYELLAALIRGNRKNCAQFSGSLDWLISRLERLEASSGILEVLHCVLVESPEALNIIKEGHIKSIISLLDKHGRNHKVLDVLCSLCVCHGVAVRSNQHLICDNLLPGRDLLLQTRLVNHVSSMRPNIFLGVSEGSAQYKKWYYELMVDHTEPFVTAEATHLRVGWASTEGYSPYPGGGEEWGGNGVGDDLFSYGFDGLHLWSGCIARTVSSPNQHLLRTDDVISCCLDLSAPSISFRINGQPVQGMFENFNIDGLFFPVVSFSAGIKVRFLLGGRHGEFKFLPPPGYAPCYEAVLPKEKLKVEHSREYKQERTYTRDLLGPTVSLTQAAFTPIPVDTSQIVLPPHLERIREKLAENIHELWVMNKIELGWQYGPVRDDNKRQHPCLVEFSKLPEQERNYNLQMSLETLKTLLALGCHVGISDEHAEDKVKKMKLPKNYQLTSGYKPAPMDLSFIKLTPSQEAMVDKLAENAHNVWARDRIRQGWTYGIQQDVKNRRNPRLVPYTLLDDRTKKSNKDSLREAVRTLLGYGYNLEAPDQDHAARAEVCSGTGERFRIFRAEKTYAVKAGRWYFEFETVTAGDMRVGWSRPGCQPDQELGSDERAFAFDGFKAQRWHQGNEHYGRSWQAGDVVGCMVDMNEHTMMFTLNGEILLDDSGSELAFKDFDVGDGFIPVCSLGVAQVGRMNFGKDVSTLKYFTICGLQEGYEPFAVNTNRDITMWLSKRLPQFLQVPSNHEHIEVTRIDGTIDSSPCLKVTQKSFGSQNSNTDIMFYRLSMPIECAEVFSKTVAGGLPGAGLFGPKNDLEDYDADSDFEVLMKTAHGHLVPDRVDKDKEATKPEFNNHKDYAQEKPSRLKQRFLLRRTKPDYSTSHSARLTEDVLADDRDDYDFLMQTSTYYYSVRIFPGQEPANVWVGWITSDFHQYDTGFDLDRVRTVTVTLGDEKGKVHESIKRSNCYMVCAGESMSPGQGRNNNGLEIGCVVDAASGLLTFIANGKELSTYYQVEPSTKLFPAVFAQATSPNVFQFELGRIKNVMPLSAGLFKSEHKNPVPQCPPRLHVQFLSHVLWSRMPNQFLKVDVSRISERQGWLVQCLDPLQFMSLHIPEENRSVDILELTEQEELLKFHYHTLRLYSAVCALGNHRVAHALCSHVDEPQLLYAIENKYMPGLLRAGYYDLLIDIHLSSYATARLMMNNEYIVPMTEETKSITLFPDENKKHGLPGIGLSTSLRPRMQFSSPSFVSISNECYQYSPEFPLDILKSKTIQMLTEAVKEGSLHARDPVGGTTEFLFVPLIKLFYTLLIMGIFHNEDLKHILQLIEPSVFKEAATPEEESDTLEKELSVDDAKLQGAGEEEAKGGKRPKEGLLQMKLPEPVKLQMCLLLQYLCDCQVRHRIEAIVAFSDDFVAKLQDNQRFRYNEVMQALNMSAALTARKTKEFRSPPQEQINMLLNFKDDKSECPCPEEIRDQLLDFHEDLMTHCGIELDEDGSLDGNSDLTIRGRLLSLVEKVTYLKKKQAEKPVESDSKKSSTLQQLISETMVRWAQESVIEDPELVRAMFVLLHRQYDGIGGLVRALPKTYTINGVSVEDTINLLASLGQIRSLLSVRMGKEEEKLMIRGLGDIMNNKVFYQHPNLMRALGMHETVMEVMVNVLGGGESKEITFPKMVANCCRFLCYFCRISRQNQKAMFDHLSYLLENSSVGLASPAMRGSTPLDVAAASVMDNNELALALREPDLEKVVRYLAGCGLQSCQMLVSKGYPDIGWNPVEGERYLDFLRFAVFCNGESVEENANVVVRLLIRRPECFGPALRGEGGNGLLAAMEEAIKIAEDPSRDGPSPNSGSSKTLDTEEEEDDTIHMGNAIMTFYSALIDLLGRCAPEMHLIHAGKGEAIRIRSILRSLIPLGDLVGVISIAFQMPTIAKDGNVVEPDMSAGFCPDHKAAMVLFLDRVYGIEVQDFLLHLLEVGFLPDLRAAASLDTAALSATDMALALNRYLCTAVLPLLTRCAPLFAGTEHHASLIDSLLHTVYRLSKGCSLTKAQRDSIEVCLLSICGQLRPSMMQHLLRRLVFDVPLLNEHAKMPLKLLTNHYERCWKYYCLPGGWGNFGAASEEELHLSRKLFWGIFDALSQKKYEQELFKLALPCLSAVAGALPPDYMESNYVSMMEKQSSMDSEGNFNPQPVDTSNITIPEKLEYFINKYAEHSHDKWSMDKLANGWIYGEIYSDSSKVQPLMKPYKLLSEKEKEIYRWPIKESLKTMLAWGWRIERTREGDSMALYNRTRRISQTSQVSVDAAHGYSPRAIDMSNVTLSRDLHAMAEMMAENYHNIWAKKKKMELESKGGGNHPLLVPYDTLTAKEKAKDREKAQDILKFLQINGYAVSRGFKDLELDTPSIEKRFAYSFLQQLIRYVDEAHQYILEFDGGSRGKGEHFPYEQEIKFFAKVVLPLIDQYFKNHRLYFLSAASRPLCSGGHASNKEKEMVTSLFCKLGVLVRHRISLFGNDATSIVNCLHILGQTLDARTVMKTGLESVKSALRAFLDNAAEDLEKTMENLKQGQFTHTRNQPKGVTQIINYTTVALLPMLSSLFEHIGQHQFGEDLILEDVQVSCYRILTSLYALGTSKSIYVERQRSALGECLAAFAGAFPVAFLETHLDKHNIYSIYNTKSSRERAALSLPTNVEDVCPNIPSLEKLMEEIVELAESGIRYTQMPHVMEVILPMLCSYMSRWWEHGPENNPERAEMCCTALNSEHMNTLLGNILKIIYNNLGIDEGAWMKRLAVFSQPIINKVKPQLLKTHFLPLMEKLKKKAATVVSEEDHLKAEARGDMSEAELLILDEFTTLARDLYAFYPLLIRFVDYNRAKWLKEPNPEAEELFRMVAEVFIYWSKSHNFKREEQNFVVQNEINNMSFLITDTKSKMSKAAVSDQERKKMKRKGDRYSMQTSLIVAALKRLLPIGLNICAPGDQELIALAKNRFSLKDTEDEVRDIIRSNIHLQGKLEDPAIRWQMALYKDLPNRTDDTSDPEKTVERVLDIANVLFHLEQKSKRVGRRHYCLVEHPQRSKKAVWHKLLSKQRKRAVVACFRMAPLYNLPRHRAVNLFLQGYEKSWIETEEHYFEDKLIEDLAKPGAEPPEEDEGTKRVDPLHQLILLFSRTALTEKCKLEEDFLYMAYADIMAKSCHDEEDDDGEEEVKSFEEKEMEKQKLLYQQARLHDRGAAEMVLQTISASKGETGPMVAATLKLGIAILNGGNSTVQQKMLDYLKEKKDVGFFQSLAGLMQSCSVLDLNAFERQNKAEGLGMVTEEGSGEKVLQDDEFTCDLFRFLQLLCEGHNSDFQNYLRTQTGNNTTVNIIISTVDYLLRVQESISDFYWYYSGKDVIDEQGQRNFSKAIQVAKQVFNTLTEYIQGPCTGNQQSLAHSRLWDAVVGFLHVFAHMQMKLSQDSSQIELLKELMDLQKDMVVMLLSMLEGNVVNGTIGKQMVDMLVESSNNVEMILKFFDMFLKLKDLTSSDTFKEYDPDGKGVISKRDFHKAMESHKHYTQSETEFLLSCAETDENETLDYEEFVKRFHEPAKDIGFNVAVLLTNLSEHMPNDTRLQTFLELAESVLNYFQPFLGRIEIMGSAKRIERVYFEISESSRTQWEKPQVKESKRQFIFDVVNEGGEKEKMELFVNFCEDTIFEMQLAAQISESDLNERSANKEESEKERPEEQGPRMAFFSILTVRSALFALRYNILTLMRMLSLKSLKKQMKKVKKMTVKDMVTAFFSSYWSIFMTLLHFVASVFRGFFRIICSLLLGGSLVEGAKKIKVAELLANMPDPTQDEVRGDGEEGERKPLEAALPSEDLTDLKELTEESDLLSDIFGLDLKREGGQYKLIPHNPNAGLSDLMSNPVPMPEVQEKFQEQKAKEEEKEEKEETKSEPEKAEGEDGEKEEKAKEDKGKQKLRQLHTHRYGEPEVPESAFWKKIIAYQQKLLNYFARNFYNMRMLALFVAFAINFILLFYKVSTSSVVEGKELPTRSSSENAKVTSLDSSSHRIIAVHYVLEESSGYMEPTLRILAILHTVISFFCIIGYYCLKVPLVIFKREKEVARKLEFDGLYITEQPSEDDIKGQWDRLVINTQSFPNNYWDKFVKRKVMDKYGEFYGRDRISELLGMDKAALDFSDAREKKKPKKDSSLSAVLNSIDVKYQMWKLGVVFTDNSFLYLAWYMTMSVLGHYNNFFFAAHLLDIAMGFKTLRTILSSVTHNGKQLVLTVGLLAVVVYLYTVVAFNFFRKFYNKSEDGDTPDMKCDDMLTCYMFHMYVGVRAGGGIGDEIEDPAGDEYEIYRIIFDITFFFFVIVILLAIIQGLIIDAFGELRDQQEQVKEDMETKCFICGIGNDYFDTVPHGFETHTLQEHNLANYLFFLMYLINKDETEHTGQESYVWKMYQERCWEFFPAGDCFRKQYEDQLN
UniProt Q15413, residues 1-911: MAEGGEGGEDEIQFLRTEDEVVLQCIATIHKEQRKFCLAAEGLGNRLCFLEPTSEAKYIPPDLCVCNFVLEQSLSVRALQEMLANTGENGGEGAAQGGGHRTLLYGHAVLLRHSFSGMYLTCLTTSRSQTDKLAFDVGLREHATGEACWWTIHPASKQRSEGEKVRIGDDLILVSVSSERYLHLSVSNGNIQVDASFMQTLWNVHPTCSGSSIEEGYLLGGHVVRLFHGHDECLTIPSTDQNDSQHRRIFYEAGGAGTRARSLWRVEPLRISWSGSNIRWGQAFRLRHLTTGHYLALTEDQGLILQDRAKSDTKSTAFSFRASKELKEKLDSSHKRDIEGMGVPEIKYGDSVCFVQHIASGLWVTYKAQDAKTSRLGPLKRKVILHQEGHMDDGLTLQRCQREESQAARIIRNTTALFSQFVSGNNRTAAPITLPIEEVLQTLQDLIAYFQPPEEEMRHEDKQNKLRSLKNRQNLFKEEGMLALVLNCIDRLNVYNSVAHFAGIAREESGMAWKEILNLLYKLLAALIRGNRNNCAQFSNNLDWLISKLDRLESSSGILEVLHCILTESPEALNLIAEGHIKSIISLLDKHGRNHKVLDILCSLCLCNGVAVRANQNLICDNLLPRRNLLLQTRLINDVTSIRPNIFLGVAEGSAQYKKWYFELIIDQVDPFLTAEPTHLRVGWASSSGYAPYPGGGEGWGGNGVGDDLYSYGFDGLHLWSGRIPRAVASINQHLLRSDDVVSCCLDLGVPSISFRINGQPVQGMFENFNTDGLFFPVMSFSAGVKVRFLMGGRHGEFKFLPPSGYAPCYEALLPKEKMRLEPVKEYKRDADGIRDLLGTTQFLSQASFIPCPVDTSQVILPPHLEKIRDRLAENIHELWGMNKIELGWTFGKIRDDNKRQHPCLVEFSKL

Legend:
[1] = molecular target: HA-tagged cMyBP-C CT (residues 817–1274) (human) (UniProt Q14896); assay: co-IP; HEK293 cells co-expressing cMyc-tagged BT (RyR) constructs with HA-tagged cMyBP-C constructs; HA–cMyBP-C immunoprecipitated with Ab^HA from solubilised cell lysates, co-precipitated BT detected by western blotting with Ab^cMyc; non-immune rabbit IgG as negative control; densitometry
[2] = molecular target: full-length human RyR2 (recombinant) (human) (UniProt Q92736); assay: co-IP; HEK293 cells co-expressing full-length human RyR2 with human cMyBP-C/FL; RyR2 immunoprecipitated with Ab^1093 from cell lysate, co-precipitated cMyBP-C detected by western blotting with Ab^HA; non-immune rabbit IgG as negative control
[3] = molecular target: RyR2 N-terminal fragment (residues 1–906, BT4L; RyR2^NT), yeast two-hybrid bait (human) (UniProt Q92736); assay: two-hybrid; yeast two-hybrid: RyR2^NT (BT4L) as bait to screen a human heart cDNA library; the isolated cMyBP-C^CT clone retested against overlapping RyR2 fragments, β-galactosidase assay
[4] = molecular target: HA-tagged cMyBP-C N-terminal fragment comprising domains C0–C6 (NT, residues 1–865; cMyBP-C^NT) (human) (UniProt Q14896); assay: co-IP; HEK293 cells co-expressing cMyc-tagged BT (RyR) constructs with HA-tagged cMyBP-C constructs; HA–cMyBP-C immunoprecipitated with Ab^HA from solubilised cell lysates, co-precipitated BT detected by western blotting with Ab^cMyc; non-immune rabbit IgG as negative control; densitometry
[5] = molecular target: HA-tagged full-length cMyBP-C (cMyBP-C^FL) (human) (UniProt Q14896); assay: as above

| Substance | binding [1] | other results |
| --- | --- | --- |
| BT4DL (cMyc-tagged RyR2 residues 161–906) (from UniProt Q92736 161-906) (domain or fragment) | binds | – |
| HA-tagged full-length cMyBP-C (cMyBP-C^FL) (from UniProt Q14896 1-1274) | – | binding [2]: binds |
| cMyBP-C C-terminus (residues 817–1274; cMyBP-C^CT), clone isolated from a human heart cDNA library in the yeast two-hybrid screen (from UniProt Q14896 817-1274) (domain or fragment) | – | binding [3]: binds |
| BT4L (cMyc-tagged RyR2 residues 1–906) (from UniProt Q92736 1-906) (domain or fragment) | binds | binding [4]: no binding; binding [5]: binds |
| BT4LR3, RyR3 N-terminal fragment, amino acids 1–911 (RyR3^NT) (from UniProt Q15413 1-911) (domain or fragment) | binds | – |
| BT4LR1, RyR1 N-terminal fragment, amino acids 1–915 (RyR1^NT) (from UniProt P21817 1-915) (domain or fragment) | binds | – |
| BT4D (cMyc-tagged RyR2 residues 161–759) (from UniProt Q92736 161-759) (domain or fragment) | binds | – |

Further lines, with some results ahead:

| binding [1] | Substance | other results |
| --- | --- | --- |
| binds | BT4EL (cMyc-tagged RyR2 residues 565–906) (from UniProt Q92736 565-906) (domain or fragment) | – |
| binds | BT4 (cMyc-tagged RyR2 residues 1–759) (from UniProt Q92736 1-759) (domain or fragment) | – |
| no binding | BT7 (cMyc-tagged RyR2 residues 3071–3940) (from UniProt Q92736 3071-3940) (domain or fragment) | binding [4]: no binding; binding [5]: no binding |
